# Results as given in PubChem BioAssay AID504845 (National Center for Advancing Translational Sciences (NCATS), 2011).
# Out of some 390,000 compounds screened, about 150 (0.038%) were called active. The inconclusive results got no clear call from the source; some entries with a clear call stand among them for comparison. Calls follow the shape of the dose curve; as a rule, active = well fitted inhibition curve with a large enough effect; inconclusive = small, poorly fitted or top-dose-only effect; inactive = no such curve, though single readings can be large or run the other way. Where the call is inconclusive, the potency comes from a doubtful curve fit.
# Target: Regulator of G-protein signaling 4 (Homo sapiens) (UniProt P49798)
# UniProt P49798, sequence (P49798 whole entry, looked up): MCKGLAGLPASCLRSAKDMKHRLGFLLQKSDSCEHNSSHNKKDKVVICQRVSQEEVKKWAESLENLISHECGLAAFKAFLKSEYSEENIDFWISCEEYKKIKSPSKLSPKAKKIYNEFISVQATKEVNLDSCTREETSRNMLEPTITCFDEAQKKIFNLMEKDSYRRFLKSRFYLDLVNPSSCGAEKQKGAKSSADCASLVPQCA
# Test: Inhibitors of Regulator of G Protein Signaling (RGS) 4: qHTS; also: nearly all actives have a fitted effect of over 75% in size
# Conditions: Transcreener GDP fluorescence polarization, RGS4-accelerated GTP hydrolysis; series mostly up to 114 µM
# Outline: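 MLSMR compounds (23 nl, pin-transferred) preincubated 10 min at room temperature with a 500nM (2x) first reagent, then RGS4 at 900nM (2x) plus Transcreener GDP mix added; fluorescence polarization (620/688 nm) read before and after 90 min at 30 °C.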
# Potency is read from the fitted curve at half-maximal effect; tags tell the direction and shape of the fitted curve.
row,Structure (SMILES),Potency
1,N#Cc1c(Nc2ccc(Cl)cc2)s[nH]c1=O,"inconclusive: 17.8 µM [inhibitor, full curve, poor fit]"
2,COc1ccc(CC(=O)NC(=S)Nc2cccc(C)c2)cc1,"inconclusive: 31.6 µM [inhibitor, full curve, poor fit]"
3,N#C/C(=C\c1coc2ccccc2c1=O)C(N)=S,"inconclusive: 50.1 µM [inhibitor, partial curve, poor fit]"
4,O=S(OCCN1CCCC1)C(c1ccccc1)c1ccccc1 (centres undefined),"inconclusive: 100 µM [inhibitor, single point]"
5,Cc1cccnc1NC(=O)c1ccc(Cl)c(S(=O)(=O)N2CCCCCC2)c1,inactive
6,CC1=N/C(=C/c2cccnc2)C(=O)O1,"inconclusive: 79.4 µM [inhibitor, partial curve, poor fit]"
7,O=C(NCC1CCCO1)/C(=C/c1ccccc1)NC(=O)c1ccccc1 (centres undefined),"inconclusive: 79.4 µM [inhibitor, partial curve, poor fit]"
8,Cc1csc(NC(=O)CSc2nnc(Cc3cccn3C)n2CCc2ccccc2)n1,"inconclusive: 50.1 µM [inhibitor, partial curve, poor fit]"
9,Cc1[nH][nH]c(=O)c1C(c1cc2c(cc1Br)OCO2)c1c(C)[nH][nH]c1=O,"inconclusive: 44.7 µM [inhibitor, partial curve, poor fit]"
10,Cc1cc(C)nc(/N=C2\NC(=O)CC(C(=O)O)N2c2ccc(C)c(C)c2)n1 (centres undefined),"inconclusive: 17.8 µM [inhibitor, full curve, poor fit]"
11,CN(C)CCCOC(=O)COc1ccc(C(C)(C)C)cc1,"inconclusive: 89.1 µM [inhibitor, single point]"
12,Cc1ccccc1Cn1nnc2sc3c(c2c1=O)CCCC3,inactive
13,O=C(CCSC1=NCCCN1)c1ccc(F)cc1,"inconclusive: 56.2 µM [inhibitor, partial curve, poor fit]"
14,O=C(c1cc(=O)[nH]c2ccccc12)N1CCN(c2cccc(C(F)(F)F)c2)CC1,"inconclusive: 50.1 µM [inhibitor, partial curve, poor fit]"
15,Nc1nc(SCC(=O)Nc2ccc(Cl)cn2)n[nH]1,"inconclusive: 56.2 µM [inhibitor, partial curve, poor fit]"
16,CCC(=O)N1CCc2cc(S(=O)(=O)NCCN3CCC(C)CC3)ccc21,inactive
17,O=C(Cn1nnc(-c2ccccc2NC(=O)c2cccs2)n1)Nc1ccccc1,"inconclusive: 79.4 µM [inhibitor, partial curve, poor fit]"
18,CCc1c(C)nc2ncnn2c1N1CCC(C(=O)NCc2cccc(OC)c2)CC1,"inconclusive: 79.4 µM [inhibitor, single point]"
19,CC(=O)c1c(C)nc(-c2ccc(Cl)cc2)nc1NC(=O)C(C)C,"inconclusive: 79.4 µM [inhibitor, single point]"
20,CC1=NN(c2ccccc2)C(=O)/C1=C/c1cccs1,"inconclusive: 56.2 µM [inhibitor, partial curve, poor fit]"

row,Structure (SMILES),Potency
1,Cc1ccc(N2C(S)=C(C#N)C(=O)NC2c2ccco2)cc1 (centres undefined),"inconclusive: 79.4 µM [inhibitor, partial curve, poor fit]"
2,O=C1CCC[C@@H]2Cc3nc4ccc(O)cc4cc3[C@@H]3CCN1[C@H]23,"inconclusive: 89.1 µM [inhibitor, single point]"
3,N#Cc1ccc(CC(=O)c2ccccc2)[nH]c1=O,"inconclusive: 44.7 µM [inhibitor, partial curve, poor fit]"
4,CN1CCN(c2nc3c(c(=O)[nH]c(=O)n3C)n2CCCSc2nnnn2-c2ccccc2)CC1,inactive
5,COc1ccc(C(NC(C)=O)c2ccc3cccnc3c2O)c(OC)c1 (centres undefined),"inconclusive: 89.1 µM [inhibitor, single point]"
6,Cc1cccc(/C=N/n2c(COc3ccccc3)n[nH]c2=S)c1,"inconclusive: 79.4 µM [inhibitor, partial curve, poor fit]"
7,CC(C)CC(NC(=O)CC12CC3CC(CC(C3)C1)C2)C(=O)NC1=NCCS1 (centres undefined),"inconclusive: 31.6 µM [inhibitor, full curve, poor fit]"
8,COc1ccc(-c2ccc(OC)c(C3C4C=CCCC4(C)C(=O)N3Cc3ccccc3)c2)cc1 (centres undefined),inactive
9,CCCSC1=N/C(=C\C=C\c2ccco2)C(=O)S1,"inconclusive: 56.2 µM [inhibitor, partial curve, poor fit]"
10,CC(c1n[nH]c(=S)n1Cc1ccccc1)N(C)C (centres undefined),"inconclusive: 39.8 µM [inhibitor, partial curve, poor fit]"
11,CCn1c2ccccc2c2cc(NC(=O)c3cccc([N+](=O)[O-])c3C)ccc21,"inconclusive: 70.8 µM [inhibitor, single point]"
12,COc1ccc(N2CC(C)Cn3c2nc2c3c(=O)n(Cc3ccccc3F)c(=O)n2C)c(OC)c1 (centres undefined),"inconclusive: 89.1 µM [inhibitor, single point]"
13,Cc1ccc(Cn2nc(C)c(NC(=O)CSc3n[nH]c(C)c3[N+](=O)[O-])c2C)cc1,"inconclusive: 79.4 µM [inhibitor, single point]"
14,CC(=O)Nc1ccc(-c2cc(-c3ccc(NC(C)=O)cc3)nc(-c3ccccc3)n2)cc1,inactive
15,Cc1cccc(C(=O)Nc2ccc(C(=O)/C=C/c3ccncc3)cc2)c1,"inconclusive: 79.4 µM [inhibitor, partial curve, poor fit]"
16,O=C(O)c1ccccc1-c1ccccc1C(=O)NCc1cccc(C(F)(F)F)c1,"inconclusive: 56.2 µM [inhibitor, partial curve, poor fit]"
17,O=C(O)C1Sc2[nH]c(=O)sc2C2c3cc(Br)ccc3OC(=O)C12 (centres undefined),"inconclusive: 50.1 µM [inhibitor, partial curve, poor fit]"
18,CCOC(=O)C1Sc2[nH]c(=O)sc2C(c2ccc(Cl)cc2)C1C(=O)OCC (centres undefined),"inconclusive: 39.8 µM [inhibitor, partial curve, poor fit]"
19,COc1ccc(/C=C/C(=O)Nc2cc(C)on2)cc1,"inconclusive: 39.8 µM [inhibitor, partial curve, poor fit]"
